Measured values as given in the supplement of paper PMC10126150.
Values marked as one replicate rest on one cluster of the flow cell; about a third of the high ones do not repeat.

system: ATP; assay: switch fluorescence ratio, 500 uM ATP over buffer (Cy3 cluster intensity, sum of 5 cycles each) (fold (ratio)); higher = stronger signal-on switching upon ATP binding; sequences stand for … in TCGTCGGCAGCGTCAGATGTGTATAAGAGACAGTTTTTTTTTTTTTTTTTTTTTTTTT…TC; details: aptamer strand: ATP DNA aptamer (quencher-CACCTGGGGGAGTATTGCGGAGGAAGG + anchor), 100 nM annealed; ATP concentration: 500 uM; one replicate
In short: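 Imaging in selection buffer was followed by imaging after 15 min with 500 uM ATP at 22 °C, for Cy3-labelled switching-strand clusters annealed to 100 nM quencher-labelled ATP aptamer on a modified Illumina MiSeq flow-cell. Five of these buffer/ATP cycles ran, separated by NaOH stripping and re-annealing. The fluorescence ratio per cluster is summed target-cycle over summed buffer-cycle Cy3 intensity, averaged per switch-domain sequence; clusters outside 100-1000 RFU were removed.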
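Note: ATP exposure 15 min at 22 °C before imaging.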

Sequence | switch fluorescence ratio
TGAACTCTCA | 1.07
TGAACTGGGA | 0.992
TGAACTTATG | 1.01
TGAAGAAAAC | 1.03
TGAAGAACTC | 1.01
TGAAGATAAT | 0.968
TGAAGGCAAA | 0.992
TGAAGGGAGC | 1.01
TGAAGTACGT | 1.13
TGAAGTCCTC | 0.996
TGAATATAAA | 0.95
TGAATATCGG | 0.965
TGAATCTCAG | 0.984
TGAATCTGTG | 1.03
TGAATTAACC | 0.992
TGAATTCGAG | 1.05
TGAATTCGCA | 1.16
TGAATTGGGT | 0.985
TGACAACATA | 1.04
TGACACACGT | 1.32
TGACACAGGC | 1.05
TGACACTACT | 1.35
TGACAGTTAG | 1.29
TGACATAAGA | 1
TGACCAGTTG | 0.999
TGACCCCTTG | 1.03

Sequence | switch fluorescence ratio
TGACCCGAGC | 1.03
TGACCCTCTG | 0.918
TGACCCTCTT | 1.01
TGACCGGGC | 1.05
TGACCTCAGC | 1.11
TGACGCCTT | 1.78
TGACGCGCCT | 1.15
TGACTAGACC | 1.07
TGACTCACAG | 0.956
TGACTGTTAG | 1
TGACTTTTAA | 0.959
TGAGAAATGA | 0.996
TGAGAACCGG | 0.957
TGAGATGTTG | 0.949
TGAGATTACT | 0.953
TGAGCACGAC | 1.33
TGAGCGAAAC | 0.969
TGAGCGTTAC | 2.35
TGAGCTAAGA | 0.999
TGAGCTCAGG | 1.02
TGAGCTTGGA | 0.981
TGAGCTTTGT | 0.971
TGAGGACTAC | 0.968
TGAGGAGGT | 1.03
TGAGGATGG | 0.995
TGAGGCCAAA | 1.05

Sequence | switch fluorescence ratio
TGAGGCGACC | 1.08
TGAGGGCAG | 1
TGAGGGGCCC | 1.12
TGAGGGTCTG | 1.02
TGAGGGTGAA | 0.948
TGAGGTCCAG | 0.989
TGAGGTCGAA | 0.964
TGAGGTCGTC | 0.994
TGAGGTGCCT | 1.02
TGAGGTGGTA | 0.97
TGAGTAAGAT | 1.02
TGAGTCCAA | 1.02
TGAGTGGGTA | 0.981
TGAGTGGTGG | 1.01
TGAGTTAT | 1.02
TGAGTTCCTC | 1
TGAGTTGATG | 0.99
TGATAGACGA | 1.03
TGATAGGTCG | 1.07
TGATAGTGCG | 0.989
TGATATGATG | 1.01
TGATATGTGC | 1.01
TGATATGTTG | 1.01
TGATCCGTTG | 1.04
TGATCGAAGT | 0.965
